According to PubChem BioAssay AID1508623 (National Center for Advancing Translational Sciences (NCATS), 2021):
About 450 (0.94%) of roughly 48,000 compounds were called active. Another 19% or so got no clear call; they are omitted. Calls follow the shape of the dose curve; as a rule, active = well fitted inhibition curve with a large enough effect; inconclusive = small, poorly fitted or top-dose-only effect; inactive = no such curve, though single readings can be large or run the other way. This is one part of the list.

Experiment: Primary qHTS for Identification of Small Molecule Inhibitors of Huntingtin Promoter Activity; also: nearly all actives have a fitted effect of over 50% in size
Settings: HEK293 HTT promoter firefly luciferase reporter (activity 0% = vehicle and -100% = no light), 24 h; series mostly up to 57.5 µM; activity change, negative = inhibition: at the top concentration
How it was run: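 Firefly luciferase readout (Dual-Glo, 10 min RT) after 24 h, 37 °C compound exposure (final up to 57.5 uM) of HEK293 reporter cells cultured 24 h beforehand; PTC124 at 50 uM final as control inhibitor; activity scaled vehicle 0%, zero RLU -100%.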
Potency is read from the fitted curve at half-maximal effect.

SMILES	activity change, negative = inhibition	Potency
COC(=O)c1ccccc1NC(=O)c1cc2nc(-c3ccc(OC)cc3)cc(C(F)(F)F)n2n1	inactive: -0.107%	–
Cc1ccc(NC(=O)c2ccc(NC(=O)N3CCSc4nc(C)cc(C)c43)cc2)c(Cl)c1	inactive: -19.8%	–
O=C(Cn1nc2c(cc1=O)CCCC2)Nc1ccccc1C(F)(F)F	inactive: 9.9%	–
Cc1ccc(C)c(NC(=O)c2ccc3nc(CCc4ccccc4)oc3c2)c1	inactive: 9.48%	–
O=C(CSc1n[nH]c(-c2ccccc2Cl)n1)N1CCN(c2ccccc2)CC1	inactive: 0.121%	–
CCOC(=O)CNS(=O)(=O)c1cc(-c2nnc(Nc3cccc(O)c3)c3ccccc23)ccc1C	inactive: -1.5%	–
CCCc1ccc(C2Sc3ccccc3NC3=C2C(=O)c2ccccc23)cc1 (centres undefined)	–	active: 31.6 µM
Cc1cc(NC(=O)c2cccs2)cc(-c2nc3cc(Cl)ccc3o2)c1O	inactive: -11.3%	–
C[C@@H]1CCO[C@H]2Cn3cc(C(=O)NCc4ccc(F)cc4F)c(=O)c(O)c3C(=O)N12	inactive: 8.51%	–
CCC(=O)NCc1cc(-c2nn(C)c(=O)c3ccccc23)ccc1OC	inactive: -4.41%	–
CCC(C)(C)C1CCc2c(sc(NC(=O)C3c4ccccc4Oc4ccccc43)c2C(N)=O)C1 (centres undefined)	inactive: -10.5%	–
O=S(=O)(c1ccccc1)c1nc(-c2cccs2)oc1SCc1ccccc1F	inactive: -15.8%	–
Cc1ccc(C)c(N2CCN(CCCNC(=O)Cn3ncc4c5ccccc5n(C)c4c3=O)CC2)c1	inactive: -15.2%	–
CCCCC(CC)CNC(=O)C1CCN(S(=O)(=O)c2cccc3nsnc23)CC1 (centres undefined)	inactive: -11.7%	–
O=C(O)[C@@H](O)[C@H](O)[C@H](O)[C@@H](O)C(=O)O	inactive: 5.81%	–
N#Cc1nc(-c2ccc(COc3ccc(Cl)cc3)o2)oc1N1CCN(c2ccccc2)CC1	inactive: -15.6%	–
CCOc1ccc(NC(=O)CCn2cnc3onc(-c4ccc(F)cc4)c3c2=O)cc1	inactive: -7.2%	–
O=C(CSc1nc2c(oc3ccccc32)c(=O)n1-c1ccccc1F)Nc1ccccc1	inactive: -20.4%	–
OC[C@H]1O[C@H](O[C@]2(CCl)O[C@H](CCl)[C@@H](O)[C@@H]2O)[C@H](O)[C@@H](O)[C@H]1Cl	inactive: 9.57%	–
CNC(=O)c1cc(Oc2ccc(NC(=O)Nc3cc(C(C)(C)C)nn3-c3ccc4ncccc4c3)c(F)c2)ccn1	inactive: -26.2%	–
Cn1c(=O)cc(SCC(=O)N2CCN(c3ccc(F)cc3)CC2)c2ccc(Cl)cc21	inactive: -3.56%	–
CC(C)CN1CCc2nc(N3CCN(C)CC3)ncc2C1	inactive: -2.28%	–
Cc1ccc(Nc2c3c(nc4nncn24)CCC3)cc1C	inactive: -17.5%	–
O=C(CN1C(=O)COc2ccc(S(=O)(=O)N3CCOCC3)cc21)NCc1ccc(F)cc1	inactive: 0.284%	–
CCOc1cc(S(=O)(=O)n2ccnc2C(C)C)ccc1Cl	inactive: -8.25%	–

SMILES	activity change, negative = inhibition	Potency
CCn1cc(C(=O)N2CCN(c3ccccc3F)CC2)c(=O)c2cc(S(=O)(=O)N(C)C3CCCCC3)ccc21	inactive: -4.06%	–
CCOC(=O)c1c(C)oc2nc(C)nc(NCc3ccc(Cl)cc3)c12	inactive: 12.5%	–
COc1ccc(-c2cc3ccc(O)c(CN4CCOCC4)c3oc2=O)cc1	inactive: 5.9%	–
CC(=O)N1CCc2cc(Br)cc(S(=O)(=O)N3CCC(C(=O)N(C)c4cc(C)ccc4C)CC3)c21	inactive: 2.53%	–
COc1cc(NC(=O)c2ccccc2)ccc1NC(=O)c1cc2ccccc2o1	inactive: 4%	–
Cc1cccc(NC(=O)CSc2nc(-c3ccco3)nc3cc(=O)[nH]n23)c1	inactive: -9.95%	–
COc1ccc(-c2ccc3c(N)c(C(=O)NCc4ccc(Cl)cc4)sc3n2)cc1	inactive: 4.27%	–
COC(=O)c1c(SC)nc2ccccc2c1OCc1ccccc1C	inactive: -27.4%	–
O=C(CCn1c(=O)c2ccccc2n(Cc2ccc(F)cc2Cl)c1=O)NCc1ccc2c(c1)OCO2	inactive: -14.4%	–
Cc1cccc(C)c1NC(=O)Cn1c(=O)n(CC2CCC(C(=O)NCCc3ccccc3)CC2)c(=O)c2ccccc21 (centres undefined)	inactive: -0.922%	–
CCOC(=O)c1noc2ncnc(Nc3ccc(F)cc3F)c12	inactive: -22%	–
Cc1ccc(CNC(=O)C2CCN(c3nc4ccccc4n(C)c3=O)CC2)cc1	inactive: -8.9%	–
CCOC(=O)CSc1nc2c(sc3ccccc32)c(=O)n1CCc1ccccc1	inactive: -9.34%	–
O=[N+]([O-])c1cc(-c2nc(-c3ccccc3)no2)ccc1N1CCN(c2ccccc2)CC1	inactive: -7.56%	–
Cc1ccc(NC(=O)Cn2nnc(-c3nc(-c4ccncc4)no3)c2N)cc1	inactive: 0.956%	–
CCCOc1ccc(CNC(=O)C(CC)n2nc(C)c3sc4ccccc4c3c2=O)cc1 (centres undefined)	inactive: 0.407%	–
CCOc1ccc2nc(C)cc(Nc3ccccc3OCC)c2c1	inactive: -28.1%	–
Cc1ccc(Cl)cc1N1CCN(C(=O)CCC(=O)Nc2ccc3nc(N4CCC(C)CC4)cc(C)c3c2)CC1	inactive: -18.1%	–
Cc1ccc(C(=O)O)cc1Nc1nc2ccccc2n2nnnc12	inactive: 61.4%	–
COCCNC(=O)c1c(C)oc2nc(C)nc(N3CCOCC3)c12	inactive: 2.1%	–
CCOC(=O)c1c(NC(=O)c2ccccc2Cl)sc2c1CCCC2	inactive: -25.2%	–
O=C(NCCCN1CCN(c2ccc(F)cc2)CC1)Nc1ccc(Cl)cc1	inactive: -23.9%	–
Cc1ccc(-c2nnc(SCc3ccccc3C#N)o2)cc1	inactive: 11%	–
COc1ccc2c(c1)c(CC(=O)O)c(C)n2C(=O)c1ccc(Cl)cc1	inactive	–
COc1cccc(-c2nc(CS(=O)(=O)CC(=O)NCc3ccc(C)cc3)c(C)o2)c1	inactive: -8.06%	–

SMILES	activity change, negative = inhibition	Potency
Cc1ccc2c(c1)NC(c1cccnc1)=NC(c1ccc(F)cc1)=N2	inactive: -8.79%	–
Cc1ccc(C)c(NC(=O)Cn2c(=O)n(Cc3ccco3)c(=O)c3oc4ccccc4c32)c1	inactive: 4.93%	–
Nc1nc2ccc(OC(F)(F)F)cc2s1	inactive	–
Oc1cc(O)c2c(c1)O[C@H](c1ccc(O)c(O)c1)[C@H](O)C2	inactive: 11.4%	–
Cc1cccc(OCC(=O)OCc2cc(=O)n3nc(C4CCCCC4)sc3n2)c1	inactive: -0.319%	–
CCOC(=O)C(CC)n1nc(C)n2c(cc3occc32)c1=O (centres undefined)	inactive: -17%	–
CN1CCC(=C2c3ccccc3CCc3cccnc32)CC1	inactive: 8.59%	–
COc1ccnc2c1CCCCC2S(=O)c1nc2ccccc2[nH]1 (centres undefined)	inactive: 18.2%	–
Cc1csc2nc(-c3cccc(NC(=O)c4ccccc4Cl)c3)cn12	inactive: 4.34%	–
Cc1ccc(S(=O)(=O)NCC(c2ccc(N(C)C)cc2)N2CCOCC2)cc1 (centres undefined)	inactive: -14.2%	–
O=C(NC1CCCCCC1)C1CCN(C(=O)N2CCOc3ccccc32)CC1	inactive: 8.43%	–
COc1cc(OC)c(N(C)C(=O)Cn2ncc3c([nH]c4ccccc43)c2=O)cc1Cl	inactive: -2.66%	–
O=c1c2cc3c(cc2nc2sc(Nc4ccc(F)c(Cl)c4)nn12)OCO3	inactive: -11.2%	–
COc1cc(/C=C(\C#N)c2nc3ccccc3n2C)cc(OC)c1OC	inactive: 42.1%	–
Cn1c(=O)c2c(-c3cccc(Br)c3)n(CCO)cc2n(C)c1=O	inactive: -24.6%	–
CCN1CCN(c2oc(/C=C/c3ccccc3OC)nc2C#N)CC1	inactive: -4.4%	–
CCOC(=O)c1c(-c2ccc(C)cc2)csc1NC(=O)c1nc(SCC)ncc1Cl	inactive: 11.9%	–
Cc1ccc(-n2c(=O)c3ccc(C(=O)NCc4ccccc4Cl)cc3n(Cc3ccccc3F)c2=O)cc1	inactive: -11%	–
COc1cccc(NS(=O)(=O)c2ccc3[nH]cc(C(=O)N4CCCCCC4)c(=O)c3c2)c1	inactive: -4.06%	–
CC1CCN(CCCNC(=O)c2cc(Sc3ccc(F)cc3)nc3ccccc23)CC1	inactive: -19.8%	–
Nc1cccc(-c2cn3ccsc3n2)c1	inactive: 74.3%	–
O=C(NC1CC(=O)N(c2cccc(F)c2)C1)C1CC1 (centres undefined)	inactive: -1.25%	–
Cc1ccc(NC(=O)c2oc3ccccc3c2NC(=O)c2ccccc2C)cc1	inactive: -4.09%	–
COc1ccc(Cn2c(=O)c3cccnc3n(Cc3cccc(OC)c3)c2=O)cc1	inactive: -21.5%	–
CSc1nnc(NC(=O)Cc2coc3cc(C)ccc23)s1	inactive: 15.4%	–

SMILES	activity change, negative = inhibition	Potency
CCCCC(CC)CNC(=O)c1ccc2c(=O)n(Cc3ccc(OC)cc3)c(=O)[nH]c2c1 (centres undefined)	inactive: -2.45%	–
Cn1nc(C(=O)NCc2ccc(Cl)cc2)c2c1-c1ccccc1SC2	inactive: -15.1%	–
Cc1ccc(N(Cc2cccs2)C(=O)c2ccc(Br)o2)cc1	inactive: -17.5%	–
Cc1cc(=O)n2nc(N3CCC(C(=O)Nc4ccc(C)c(Cl)c4)CC3)sc2n1	inactive: -10.9%	–
Cc1c(C)c2c(c(C)c1O)CCC(C)(COc1ccc(CC3SC(=O)NC3=O)cc1)O2 (centres undefined)	inactive	–
COc1ccc(CNC(=O)Cc2c(C)c3c(cc(C)c4c(C)c(C)oc43)oc2=O)cc1	inactive: -3.84%	–
CCSc1ncc(Cl)c(C(=O)Nc2nc3ccc(OC)cc3s2)n1	inactive: 1.27%	–
CCc1nonc1NC(=O)c1oc2ccccc2c1C	inactive: 16.6%	–
COc1ccc(CNC(=O)CCS(=O)(=O)c2ccc3c(c2)oc(=O)n3C)cc1	inactive: -9.85% [at 11.5 µM]	–
CCOC(=O)N1CCC(NC(=O)c2ccc3c(c2)N(Cc2ccc(F)cc2)C(=O)c2ccccc2S3(=O)=O)CC1	inactive: -30.5%	–
Cc1ccc(CNC(=O)c2ccc3c(O)c(S(=O)(=O)c4ccccc4)c(=O)[nH]c3c2)cc1	inactive: -0.887%	–
CCOc1ccc(NC(=O)C(NS(=O)(=O)c2ccc3c(c2)CCN3C(C)=O)C(C)C)cc1 (centres undefined)	inactive: -19.9%	–
CCCCC(CC)COC(=O)c1ccccc1C(=O)O (centres undefined)	inactive: -1.93% [at 116 µM]	–
O=C(CSc1nc2ccccc2nc1Cc1ccc(Cl)cc1)NCCc1ccccc1	inactive: -6.13%	–
CCOc1ccccc1NC(=O)c1nnn(CC(=O)Nc2ccc(OC)c(OC)c2)c1N	inactive: -18.5%	–
COc1ccc(OC)c(C(C)NC(=O)Cn2c(=O)cc(C)c3c(C)nn(-c4ccc(C)cc4)c32)c1 (centres undefined)	inactive: -1.9%	–
Cc1ccc(C)c(N2CCN(Cc3csc(C)c3C)CC2)c1	inactive: -21.6%	–
COc1ccccc1-c1cc(C(=O)N2CCCCC2C)no1 (centres undefined)	inactive: 45.9%	–
CCCCC(=O)Nc1ccc2nc(SCC(=O)N3CCCC3)sc2c1	inactive: 23.8%	–
Nc1c(-c2nc(-c3cccs3)no2)nnn1-c1cccc(Cl)c1	inactive: 54.4%	–
COc1ccc(CNC(=O)c2nn(-c3ccccc3C)nc2CO)cc1	inactive: -19.7%	–
CCc1ccc(Nc2ncnc3c2cnn3-c2cc(Cl)ccc2C)cc1	inactive: -12.5%	–
COc1cccc(CNC(=O)C(NS(=O)(=O)c2ccc3c(c2)CCN3C(C)=O)C(C)C)c1 (centres undefined)	inactive: -13.1%	–
CCOc1ccccc1CC1C(=O)Nc2ccc(Br)cc21 (centres undefined)	–	active: 17.8 µM
